Reference: paper PMC12713088
Results are given in words; binding and its absence hold for the method and conditions named. Some binding calls cover weakened binding; strength is not graded here. Sequences can lack the tags named with a protein.

Amino acid sequences for entries named in this document (tags omitted).
UniProt Q8GUI6: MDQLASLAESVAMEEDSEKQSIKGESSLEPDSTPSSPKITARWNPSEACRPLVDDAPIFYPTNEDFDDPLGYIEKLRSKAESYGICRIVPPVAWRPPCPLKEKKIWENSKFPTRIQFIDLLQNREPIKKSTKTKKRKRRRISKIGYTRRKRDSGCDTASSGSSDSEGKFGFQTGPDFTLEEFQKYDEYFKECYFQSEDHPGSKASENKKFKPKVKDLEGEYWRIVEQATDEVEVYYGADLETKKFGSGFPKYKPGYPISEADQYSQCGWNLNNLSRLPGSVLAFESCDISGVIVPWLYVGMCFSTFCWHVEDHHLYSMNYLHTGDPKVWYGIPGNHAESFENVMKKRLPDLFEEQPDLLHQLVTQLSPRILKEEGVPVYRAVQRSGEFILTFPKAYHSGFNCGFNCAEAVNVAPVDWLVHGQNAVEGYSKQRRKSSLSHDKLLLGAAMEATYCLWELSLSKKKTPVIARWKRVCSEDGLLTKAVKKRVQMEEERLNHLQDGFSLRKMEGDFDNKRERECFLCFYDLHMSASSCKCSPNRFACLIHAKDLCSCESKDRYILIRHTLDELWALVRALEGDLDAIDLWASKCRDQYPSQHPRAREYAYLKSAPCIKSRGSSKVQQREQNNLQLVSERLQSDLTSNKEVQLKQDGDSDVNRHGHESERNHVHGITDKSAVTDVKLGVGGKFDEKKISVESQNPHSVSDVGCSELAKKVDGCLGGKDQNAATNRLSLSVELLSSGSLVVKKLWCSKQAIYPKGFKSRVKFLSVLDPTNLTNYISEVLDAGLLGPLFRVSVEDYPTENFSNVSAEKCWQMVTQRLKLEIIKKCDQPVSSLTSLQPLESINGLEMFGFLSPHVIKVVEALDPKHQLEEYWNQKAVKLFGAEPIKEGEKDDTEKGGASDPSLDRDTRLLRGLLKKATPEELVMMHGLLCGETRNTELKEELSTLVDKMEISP

Legend:
[1] = molecular target: T1, NAC050, yeast two-hybrid fusion (Arabidopsis thaliana) (UniProt Q9SQX9); assay: two-hybrid; pGADT7 and pGBKT7 fusions, strains AH109 and Y187 mated; growth on SD-LWH with 0 or 3 mM 3-AT
T1 sequence: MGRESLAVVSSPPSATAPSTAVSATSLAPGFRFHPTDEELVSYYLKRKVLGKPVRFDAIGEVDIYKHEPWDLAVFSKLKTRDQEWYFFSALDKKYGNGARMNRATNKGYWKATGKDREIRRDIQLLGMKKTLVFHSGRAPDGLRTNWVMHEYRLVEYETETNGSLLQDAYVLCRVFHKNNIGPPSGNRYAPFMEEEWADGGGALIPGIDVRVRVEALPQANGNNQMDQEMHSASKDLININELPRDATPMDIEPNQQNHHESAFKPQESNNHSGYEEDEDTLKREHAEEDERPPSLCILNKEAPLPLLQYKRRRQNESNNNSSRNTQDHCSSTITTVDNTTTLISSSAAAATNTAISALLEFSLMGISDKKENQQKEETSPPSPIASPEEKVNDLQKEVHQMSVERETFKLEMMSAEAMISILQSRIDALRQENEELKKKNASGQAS

[2] = molecular target: T2, NAC052, yeast two-hybrid fusion (Arabidopsis thaliana) (UniProt Q9SQY0); assay: as above
T2 sequence: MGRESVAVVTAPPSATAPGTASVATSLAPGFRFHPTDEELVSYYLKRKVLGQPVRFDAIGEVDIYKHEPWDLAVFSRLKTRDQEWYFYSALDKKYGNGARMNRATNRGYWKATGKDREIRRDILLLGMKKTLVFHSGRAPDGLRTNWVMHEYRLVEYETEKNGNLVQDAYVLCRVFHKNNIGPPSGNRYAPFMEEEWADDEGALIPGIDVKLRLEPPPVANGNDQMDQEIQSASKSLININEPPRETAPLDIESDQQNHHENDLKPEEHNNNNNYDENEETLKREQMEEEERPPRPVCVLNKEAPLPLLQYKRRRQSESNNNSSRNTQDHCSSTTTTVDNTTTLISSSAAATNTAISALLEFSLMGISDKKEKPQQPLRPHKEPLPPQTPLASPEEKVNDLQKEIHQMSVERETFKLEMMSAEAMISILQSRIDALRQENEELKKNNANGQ

[3] = molecular target: T3, NAC050-MBP, recombinant (Arabidopsis thaliana) (UniProt Q9SQX9); assay: SEC; purified proteins mixed in equivalent molar amounts, 4 °C overnight, Superose 6 10/300GL; fractions detected by immunoblotting (GST, FLAG, MBP, HIS); both purified
T3 sequence: T1 sequence

Row | binding [1] | binding [2] | binding [3] | Substance
1 | binds | binds |  | JUMONJI14 (JMJ14), yeast two-hybrid fusion (from UniProt Q8GUI6 1-954) (enzyme)
2 |  |  | binds | JMJ14-Flag, recombinant (from UniProt Q8GUI6 1-954) (enzyme)
